Data from PubChem BioAssay AID485364 (National Center for Advancing Translational Sciences (NCATS), 2010).
Where “and” joins values, the source holds several entries; their conditions need not be identical. Equal entries are not always repeated. Hit rate of the full screen: of about 360,000 compounds, about 11,000 (3.1%) were called active. The inconclusive results got no clear call from the source; some entries with a clear call stand among them for comparison. Calls come from the whole dose curve; as a rule, active = well fitted inhibition curve with a large enough effect; inconclusive = small, poorly fitted or top-dose-only effect; inactive = no such curve, though single readings can be large or run the other way. Potencies of inconclusive entries are left out as doubtful fits.

molecular target: Schistosoma mansoni thioredoxin glutathione reductase (TGR) (UniProt Q962Y6); test: qHTS Assay for the Inhibitors of Schistosoma Mansoni Peroxiredoxins; settings: purified TGR, DTNB reduction, TNB absorbance 405 nm; series mostly up to 114 µM; note: nearly all actives have a fitted effect of over 60% in size
Procedure, shortened: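 Kinetic colorimetric format: TGR-catalysed, NADPH-driven DTNB reduction monitored via TNB absorbance. Enzyme dispensed at 20 nM; compound exposure 15 min at room temperature before reaction start.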
Potency is the fitted concentration of half-maximal effect; tags give direction and shape of the fitted curve.

Row | SMILES | Potency
1 | O=C(NC(=S)Nc1ccc(Cc2ccncc2)cc1)c1ccccc1 | inactive
2 | COC(=O)C1=C(C)N(c2cccc(C(C)=O)c2)C(=O)C1 | inconclusive [inhibitor, partial curve]
3 | CCCCN(C)C(=O)C1CCCN(S(=O)(=O)c2ccc3c(c2)CC(C)N3C(=O)C2CC2)C1 (stereo not given) | inactive
4 | O=C(O)/C=C/C(O)c1ccc(Cl)cc1 (stereo not given) | active: 25.1 µM
5 | CN(Cc1ccccc1)C(NC(=O)c1ccco1)C(Cl)(Cl)Cl (stereo not given) | inconclusive [inhibitor, partial curve]
6 | O=C1NC(=O)/C(=C\c2ccc(Br)o2)S1 | active: 14.1 µM
7 | O=C(CSC(=S)N1CCCCC1)Nc1ncc2c(n1)CC(c1ccco1)CC2=O (stereo not given) | inconclusive [inhibitor, partial curve]
8 | CCOC(=O)Cc1nn(CC)c(=O)c2ccccc12 | inactive
9 | COc1ccc(C2NCCC3(O)CCCCC23)c(OC)c1OC (stereo not given) | inconclusive [inhibitor, partial curve]
10 | O=C(CSc1ccc(Cl)cc1)NC(=O)NC1CCCC1 | inconclusive [inhibitor, single point]
11 | Nc1ccc(S(=O)(=O)Nc2nc3ccccc3o2)cc1 | inactive
12 | CC(=O)c1sc(N/N=C2\CC3CCC2(C)C3(C)C)nc1C (stereo not given) | inconclusive [inhibitor, partial curve]
13 | COc1cc(/C=C/C(=O)/C=C(O)/C=C/c2ccc(O)c(OC)c2)ccc1O | inconclusive [inhibitor, partial curve]
14 | O=C(COc1ccc(-n2cnnn2)cc1)NC(=O)NCc1ccccc1 | inconclusive [inhibitor, full curve, poor fit]
15 | CC(=O)COc1ccc2c(c1C)O/C(=C\c1ccco1)C2=O | active: 20 µM
16 | c1cncc(-c2nnc(SCc3nc4ccccc4[nH]3)o2)c1 | inactive
17 | Cc1cc(NC(=O)c2cccnc2)ccc1NC(=O)c1cc2ccccc2o1 | inactive
18 | COc1ccc(C(=O)Nc2cnc3sc(C)nn3c2=O)cc1 | inactive
19 | c1cncc(C2Nc3cccc4cccc(c34)N2)c1 | active: 12.6 µM and active: 8.91 µM
20 | COc1cccc(NC(=S)NC(=O)/C=C/c2ccco2)c1 | active: 10 µM
21 | O=C(CCS(=O)(=O)c1ccccc1)N(Cc1cccnc1)c1nc2c(F)cccc2s1 | active: 0.562 µM
22 | O=C(O)c1cccc(NC(=S)NC(NC(=O)c2ccco2)C(Cl)(Cl)Cl)c1 (stereo not given) | inconclusive [inhibitor, partial curve]
23 | CC(C)CN(c1ccccc1)S(=O)(=O)c1nnc(NC(=O)C2CCCCC2)s1 | inconclusive [inhibitor, partial curve]
24 | CC(=O)NC(c1ccco1)c1cc(F)c2cccnc2c1O (stereo not given) | inconclusive [inhibitor, partial curve]
25 | CC(=O)OC(COc1ccccc1)Cn1cnc2ccccc21 (stereo not given) | inconclusive [inhibitor, single point]

Row | SMILES | Potency
26 | COc1ccc(C2=NO[C@@H]3C(=O)N(Cc4ccccc4)C(=O)[C@H]23)cc1OC | inconclusive [inhibitor, partial curve]
27 | CCc1ccc(NC(=O)COc2ccc(F)cc2C(=O)c2cnn(-c3ccccc3)c2)cc1 | inactive
28 | CC(=O)O[C@H]1[C@H]2O[C@]23[C@@H]2CC[C@]4(O)C[C@@H](O)CC[C@]4(C)C2CC[C@]3(C)[C@H]1c1ccc(=O)oc1 (stereo not given in full) | inactive
29 | CCOCCCNC(=O)c1ccc(-c2nc(CS(=O)(=O)c3ccccc3)c(C)o2)cc1 | inconclusive [inhibitor, partial curve]
30 | COc1ccc(/C=C/C(=O)Nc2cc(-c3nc4ccccc4o3)ccc2OC)cc1 | inactive
31 | CCOc1ccc(C(=O)Nc2nnc(S(=O)(=O)N(C)Cc3ccco3)s2)cc1 | inconclusive [inhibitor, partial curve]
32 | O=C(CSc1nnc(-c2ccco2)o1)NCCc1ccccc1 | inconclusive [inhibitor, single point]
33 | Oc1ccc(C[C@@H]2CNCCN2CCc2cccc(F)c2)cc1 | inconclusive [inhibitor, partial curve]
34 | COc1ccc2c(c1)CCN(C(=O)CCl)C2C1C(=O)CCCC1=O (stereo not given) | inconclusive [inhibitor, partial curve]
35 | O=C(N/N=C/C(Cl)=C/c1ccc([N+](=O)[O-])cc1)C(=O)Nc1cccc(C(=O)O)c1 | inconclusive [inhibitor, full curve]
36 | COc1ccc(/C=N/NC(=O)C(=O)NCc2cccnc2)cc1 | inconclusive [inhibitor, single point]
37 | COc1cc(/C=N\NC(=O)c2ccc(-c3ccccc3)cc2)cc(OC)c1O | inactive
38 | CC(C)(C)c1ccc(OCC(=O)O)cc1 | inactive
39 | COc1ccc(S(=O)(=O)N2CCN(Cc3cc(=O)n4ccccc4n3)CC2)cc1 | inactive
40 | CC(=O)N1CCN(c2ccc([N+](=O)[O-])cc2C=C2C(=O)NC(=O)NC2=O)CC1 | inconclusive [inhibitor, full curve]
41 | CC[C@H]1OC(=O)C[C@@H](O)[C@H](C)[C@@H](O[C@@H]2O[C@H](C)C[C@H](N(C)C)[C@H]2O)[C@@H](CC=O)C[C@@H](C)C(=O)C=C[C@]2(C)O[C@H]2[C@@H]1C | inconclusive [inhibitor, partial curve]
42 | COc1cc(Cl)c(C)cc1NC(=O)C1CCCN(c2ncnc3onc(-c4ccc(F)cc4)c23)C1 (stereo not given) | inactive
43 | COc1ccc(-c2c(C#N)c(N)nc3c2CCC3)cc1 | inactive
44 | O=C(Nc1ccccn1)c1ccc(Cl)c(S(=O)(=O)N2CCc3ccccc32)c1 | inactive
45 | Cn1c2c(c(=O)n(C)c1=O)C(c1ccccc1C(F)(F)F)CC(=O)N2 (stereo not given) | inconclusive [inhibitor, single point]
46 | O=C(CSc1nnc(Cc2cccs2)n1Cc1ccco1)Nc1cc(Cl)cc(Cl)c1 | active: 35.5 µM
47 | CCc1ccc(NC(=O)CN2CCCN(S(=O)(=O)c3ccc(F)cc3)CC2)cc1 | inconclusive [inhibitor, partial curve]
48 | CC(NC(=O)/C(C#N)=C/c1ccc(Cl)c([N+](=O)[O-])c1)c1ccccc1 (stereo not given) | inconclusive [inhibitor, partial curve]
49 | Cc1ccc(NC(=O)CSc2nc3ccccc3c(=O)n2CC2CCCO2)cc1 (stereo not given) | inactive
50 | O=C(CSc1nnc(SCc2ccccc2)s1)N/N=C/C=C/c1ccco1 | active: 39.8 µM

Row | SMILES | Potency
51 | Oc1c(Cl)cc(Cl)c2cccnc12 | active: 15.8 µM
52 | CCOc1ccccc1N(CC(=O)NC(C)(C)C)C(=O)c1ccc(CN2CCOCC2)o1 | inconclusive [inhibitor, partial curve]
53 | COc1ccc(-n2c(SC)nc3sc4c(c3c2=O)CCN(C(C)=O)C4)cc1 | inactive
54 | Cc1cccc(-n2nc(C)c3c2NC2=C(C(=O)CCC2)C3c2ccccn2)c1 (stereo not given) | inconclusive [inhibitor, partial curve]
55 | CCOc1ccccc1N(C(=O)c1ccco1)C(C(=O)NC1CCCC1)c1cccs1 (stereo not given) | inactive
56 | O=C(CNC(=O)c1ccccc1F)N/N=C\C=C\c1ccccc1 | active: 22.4 µM
57 | CCN(CC)CCN1C(=O)C(=O)/C(=C(/O)c2c(C)[nH]c(C(=O)OC)c2C)C1c1ccco1 (stereo not given) | inconclusive [inhibitor, partial curve]
58 | CC(C(=O)NCc1ccccc1)n1ccc2cc(S(=O)(=O)N3CCCC3)ccc21 (stereo not given) | inactive
59 | O=C(Nc1cc(Br)ccc1O)C1CC(c2ccccc2Cl)=NO1 (stereo not given) | inconclusive [inhibitor, full curve, poor fit]
60 | CN(Cc1ccccc1)C(=O)c1ccccc1NC(=O)c1ccco1 | inactive
61 | CCOC(=O)Cc1csc(NC(=O)CSc2nnc(-c3cccnc3)n2Cc2ccco2)n1 | inconclusive [inhibitor, partial curve]
62 | Cn1c(=O)cc(OCCCC(=O)NCc2ccco2)c2ccccc21 | active: 39.8 µM
63 | CCOC(=O)c1ccc(OCCOc2cccc(C)c2)cc1 | inconclusive [inhibitor, full curve, poor fit]
64 | Cc1ccc(-c2csc3nc(C)n(N)c(=O)c23)o1 | inconclusive [inhibitor, full curve]
65 | CCn1cnc2c1c(=O)n(CC(=O)Nc1ccc3c(c1)OC(F)(F)O3)c(=O)n2Cc1ccccc1 | inactive
66 | Cn1cccc1C(=O)NC(=O)CSc1nc2ccccc2s1 | inactive
67 | Cc1ccc(C(C)C)c(OCC(=O)Nc2cccc(S(=O)(=O)NC3=NCCCCC3)c2)c1 | inactive
68 | Cc1ccc(NC(=O)N2CCC(NC(=O)c3cccc(C)c3)CC2)cc1 | inconclusive [inhibitor, full curve]
69 | CCCC(=O)Nc1ccc(-c2csc(NNC(C)=O)n2)cc1 | active: 25.1 µM
70 | Cc1ccccc1NC(=O)Cn1nc(-c2ccc(Cl)s2)ccc1=O | inactive
71 | O=C1c2ccccc2C(=O)N1CSc1nnc(Nc2ccccc2)s1 | inactive
72 | C=CCN1C=C2C(=O)C(C)(OC(=O)CCC(=O)OC)C(=O)C(Br)=C2C=C1c1ccc(OC)cc1 (stereo not given) | inconclusive [inhibitor, partial curve]
73 | O=C(COc1ccccc1)NNc1nc2ccccc2s1 | inactive
74 | Cc1nc([N+](=O)[O-])c(Br)n1CC(=O)c1ccc(Br)cc1 | active: 11.2 µM
75 | C[n+]1ccccc1C1CCCC/C1=N\Nc1ccc([N+](=O)[O-])cc1[N+](=O)[O-] (stereo not given) | inconclusive [inhibitor, partial curve]
